Measurements as given in PubChem BioAssay AID624296 (National Center for Advancing Translational Sciences (NCATS), 2012).
In all, about 350,000 compounds went through this assay and about 9,900 (2.8%) were called active. This list was built around the results that the source calls inconclusive (neither active nor inactive); the mix of calls is not that of the screen. Calls come from the whole dose curve; as a rule, active = well fitted activation curve with a large enough effect; inconclusive = small, poorly fitted or top-dose-only effect; inactive = no such curve, though single readings can be large or run the other way. Potencies of inconclusive entries are left out as doubtful fits.

Experiment: A quantitative high throughput screen for small molecules that induce DNA re-replication in MCF 10a normal breast cells. For activity, positive = re-replication: % of control where 0% means no effect. Note: nearly all actives have a fitted effect of over 50% in size.
Conditions: MCF 10A DNA re-replication, Hoechst nuclear intensity, 48 h; activity, positive = re-replication: at 46.1 µM (top of the series)
Potency is the fitted concentration of half-maximal effect; tags give direction and shape of the fitted curve.

Row | Structure (SMILES) | activity, positive = re-replication | Potency
1 | OCCCn1c(C2CCCN2c2nc(-c3ccc(Cl)cc3)cs2)nc2cc(Cl)c(N3CCCCC3)cc21 (configuration not stated) | inconclusive: 63.4% [activator] | –
2 | N#CC1=C2SCN(Cc3ccco3)CN2C(=O)CC1c1cccc2ccccc12 (configuration not stated) | – | inconclusive [activator, single point]
3 | C/C(=N\NC(=O)c1cccnc1)c1ccc(-c2ccccc2)cc1 | – | inactive
4 | O=C(Nc1nnc(SCC(=O)N2CCCC2)s1)C1CC(=O)N(c2ccc(F)cc2)C1 (configuration not stated) | – | inconclusive [activator, single point]
5 | COc1ccc(NC(=O)CSc2nnc(-c3ccccc3)n2Cc2ccco2)c(OC)c1 | – | inactive
6 | COc1ccc(NC(=O)n2ncc3c(C)cccc32)cc1 | – | inconclusive [activator, single point]
7 | C/C(=N/NC(=O)c1ccc(C)nc1)c1ccc2c(c1)CCCC2 | – | inconclusive [activator, single point]
8 | Cc1ccc(NC(=O)Cn2c(/C=C/c3ccccc3)nc3ccccc32)cc1C | – | active: 16.4 µM
9 | COc1cccc(/C(O)=C/c2nc3ccc(C(=O)NCCc4ccc(Cl)cc4)cc3[nH]c2=O)c1 | – | active: 8.2 µM
10 | Cc1ccc(-c2nn3c(C)nnc3s2)cc1NC(=O)c1ccc(-c2cccc(Cl)c2)o1 | – | inconclusive [activator, partial curve, poor fit]
11 | O=c1cc(/N=C/c2coc3c(ccc4ccccc43)c2=O)[nH]c(=S)[nH]1 | – | inconclusive [activator, full curve, poor fit]
12 | CC(C)OC(=O)c1ccc(NC(=O)CSc2nc3ncccc3[nH]2)cc1 | – | inconclusive [activator, single point]
13 | CCOCCN(C(=O)COC)c1cccc(OC)c1 | inactive: 16.4% [at 9.22 µM] | –
14 | Cc1ccc(Cl)cc1NC(=S)N(Cc1ccco1)C(C)c1cccs1 (configuration not stated) | – | inconclusive [activator, single point]
15 | Cc1ccc(OCCCCNC2CCCC(C)C2C)c(C)c1 (configuration not stated) | – | inconclusive [activator, single point]
16 | Cc1ccnc(-n2sc3ccccc3c2=O)n1 | – | inconclusive [activator, single point]
17 | COc1ccc(CN(C)C(=O)CCCNC(=O)c2ccc(Cl)cc2)cc1 | – | inactive
18 | CCCCCCc1ccc(O)cc1O | – | inconclusive [activator, partial curve, poor fit]
19 | Cc1ccc(NC(=O)Cn2ncc(Cl)c(Cl)c2=O)cc1S(=O)(=O)N1CCCCC1 | – | active: 4.11 µM
20 | COc1ccc(CNC(=O)CCCn2nc(C)c3c(C)n(-c4ccccc4)nc3c2=O)cc1 | – | inactive
21 | O=[N+]([O-])c1ccc(S(=O)(=O)Nc2ccccn2)cc1 | – | inactive
22 | CCCCC(C(=O)NC(=O)NCc1ccccc1)N1C(=O)c2ccccc2C1=O (configuration not stated) | – | inconclusive [activator, partial curve, poor fit]
23 | CCOC(=O)C1=C(N)Oc2ccc3ccccc3c2C1c1ccc(O)cc1 (configuration not stated) | – | active: 18.4 µM
24 | COc1ccc(N2C(=O)CC(N3CCN(c4ccccc4F)CC3)C2=O)cc1 (configuration not stated) | – | inconclusive [activator, single point]

Row | Structure (SMILES) | activity, positive = re-replication | Potency
25 | C#CCOCCOCCOCCNc1nc(N2CCN(C(=O)CCCCCCCCCCNC(=O)Cn3cc(CCCCCN)nn3)CC2)nc(N2CCN(C(=O)CCCCCCCCCCNC(=O)[C@@H](CCSC)n3cc(CCO)nn3)CC2)n1 | – | inconclusive [activator, full curve, poor fit]
26 | CC1(NC(=O)Nc2cccc(Br)c2)CCS(=O)(=O)C1 (configuration not stated) | – | inactive
27 | CCOC(=O)c1cc(NC(=O)c2ccccc2)c(=O)n2c1oc1ccccc12 | – | inactive
28 | CCOc1ccc(N2Cc3ccccc3C2)cc1 | – | inactive
29 | CC1Cc2ccccc2N1Cc1nc2cc(C(F)(F)F)ccc2c(=O)[nH]1 (configuration not stated) | – | inconclusive [activator, single point]
30 | CN(C)CCn1c(SCc2ccccc2C#N)nc2c(sc3ccccc32)c1=O | – | inactive
31 | CCN(CC(=O)Nc1cc(Cl)ccc1Cl)C(=O)c1ccc(-n2cccn2)cc1 | – | inactive
32 | CC[C@@H](C)[C@H](NC(=O)C1CCN(C(=O)[C@@H](NS(=O)(=O)c2ccc(C)cc2)C(C)C)CC1)C(=O)O | – | inactive
33 | CNC(=O)Cn1nc(-c2ccc(C)cc2)c2ccccc2c1=O | – | inactive
34 | Cc1cc(C)c2nc(SCCC#N)nc(C)c2c1 | – | inconclusive [activator, partial curve, poor fit]
35 | COc1cc2c(cc1OC)CN(c1ccc(-c3ccccc3OC)nn1)CC2 | – | inactive
36 | O=C(c1cccn(Cc2ccc(C(F)(F)F)cc2)c1=O)N1CCOCC1 | – | inactive
37 | Cc1ccc(Nc2nc(N)c([N+](=O)[O-])c(NCCO)n2)cc1C | – | inactive
38 | Cc1ccc(N(C(=O)c2csnn2)C(C(=O)NCc2ccccc2)c2cccnc2)cc1 (configuration not stated) | – | inactive
39 | Cc1nc2c(C#N)cnn2c2c1CCN(Cc1ccccc1)N2C | – | inconclusive [activator, full curve, poor fit]
40 | CN(C)CCC(=O)N1c2ccccc2Sc2ccc(C(F)(F)F)cc21 | – | inconclusive [activator, single point]
41 | Cc1cc(Nc2ccc(Cl)cc2)nc(NCc2ccccc2)n1 | – | inconclusive [activator, single point]
42 | O=C(CN1C(=O)C2CC=CCC2C1=O)Nc1ccc(-c2nnc3n2CCCCC3)cc1 (configuration not stated) | – | inactive
43 | CN(C)Cc1ccc(-c2nc3cccc4c3n2CCNC4=O)cc1 | – | inconclusive [activator, single point]
44 | CSc1ccc(C2NC(=O)c3ccccc3N2)cc1 (configuration not stated) | – | active: 16.4 µM
45 | Cc1cccc(NC2=C(Cl)C(=O)OC2OC(=O)c2ccco2)c1 (configuration not stated) | – | inconclusive [activator, single point]
46 | Cc1ccc(CO/N=C\Cc2snc(Sc3ncc(C(F)(F)F)cc3Cl)c2C#N)cc1 | – | inconclusive [activator, single point]
47 | CCC(C)(C)n1nnnc1C(c1ccccn1)N1CCOCC1 (configuration not stated) | – | inconclusive [activator, single point]
